# Test results as given in publication PMC6919601, “Identification of Plasmodium dipeptidyl aminopeptidase allosteric inhibitors by high throughput screening” (PLoS ONE, 2019).
# Where “and” joins values, the source holds several entries; their conditions need not be identical. Equal values may be shown once. About 230 (0.21%) of roughly 110,000 compounds showed an effect of 50% or more. The list shows a part of the results.
# Target: DPAP1 (Plasmodium falciparum, UniProt Q8IIJ9)
# Experiment: primary screen, percent inhibition; read by cleavage of a fluorogenic dipeptide substrate; higher = more effect of the substance
# Set-up: species or system P. falciparum D10 trophozoite lysates; single well
# 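Note: 30 min substrate incubation versus DMSO and 10 µM JCP410 controls.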
# Chain of DPAP1 (Q8IIJ9 whole entry, looked up): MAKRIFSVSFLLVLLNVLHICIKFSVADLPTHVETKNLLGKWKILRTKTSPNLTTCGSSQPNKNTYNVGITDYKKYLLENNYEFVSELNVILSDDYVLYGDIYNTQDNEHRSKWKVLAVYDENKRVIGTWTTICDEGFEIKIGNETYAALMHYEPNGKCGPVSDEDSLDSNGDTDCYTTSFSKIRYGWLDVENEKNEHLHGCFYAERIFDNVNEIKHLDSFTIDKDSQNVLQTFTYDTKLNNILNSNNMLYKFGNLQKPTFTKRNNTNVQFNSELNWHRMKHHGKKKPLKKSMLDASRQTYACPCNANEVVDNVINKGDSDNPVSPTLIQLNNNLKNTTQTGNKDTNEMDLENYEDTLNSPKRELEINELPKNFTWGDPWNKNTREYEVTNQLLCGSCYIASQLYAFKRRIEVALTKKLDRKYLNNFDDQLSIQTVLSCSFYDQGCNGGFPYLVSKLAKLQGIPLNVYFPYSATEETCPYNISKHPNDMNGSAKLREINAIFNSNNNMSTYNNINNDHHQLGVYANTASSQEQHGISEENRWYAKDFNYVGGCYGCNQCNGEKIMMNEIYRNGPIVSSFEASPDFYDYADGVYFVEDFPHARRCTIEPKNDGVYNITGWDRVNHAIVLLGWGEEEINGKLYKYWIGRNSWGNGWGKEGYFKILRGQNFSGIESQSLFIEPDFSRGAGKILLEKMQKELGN
row,Structure (SMILES),% Inhibition @ 10 uM
1,COc1ccc(NC(=N)Nc2nc(O)c3c(n2)CCCC3)cc1,-2.98%
2,c1ccc2c(N3CCCC3)nc(N3CCCC3)nc2c1,-10.8%
3,CC(=O)c1ccc(Oc2ccc(N)cc2)cc1,-4.35%
4,CCCCN(CC)CCNC(=O)c1cc2c(-c3ccccc3F)nn(C)c2s1,-5.1%
5,COc1cc(OC)c(OC)cc1/C=C1\N=C(c2ccc(OC)c(OC)c2)OC1=O,-2.9%
6,O=C(C1CCN(S(=O)(=O)N2CCOCC2)CC1)N1CCC2(CC1)OCCO2,3.66%
7,CCOC(=O)C1=C(C)N(CCO)C(=O)NC1c1cc(Cl)cc(Cl)c1OC (stereo not drawn),-1.24%
8,CCOC(=O)C1=C(CNC(C)CCc2ccccc2)NC(=O)NC1c1ccccc1 (stereo not drawn),-1.3%
9,O=C(NCC1CCCO1)c1cc2nc(-c3ccc4c(c3)OCO4)cc(C(F)(F)F)n2n1 (stereo not drawn),4.07% and 0.907%
10,Cn1c(=O)c2c(ncn2CC(=O)Nc2ccc(OCc3ccccc3)cc2)n(C)c1=O,-5.15%
11,O=C1OC(c2ccco2)=N/C1=C\c1ccc2c(c1)OCO2,-3.15%
12,C#CCOc1cccc(C2C3=C(CC(C)(C)CC3=O)N(C)C3=C2C(=O)CC(C)(C)C3)c1,-7.23%
13,Cc1ccc(S(=O)(=O)N2CCN(c3ncnc4sc5c(c34)CCCC5)CC2)cc1,-10.8%
14,Cc1ccc(C)n1-c1nnc(N2CCC(C(=O)NC(C)CCc3ccccc3)CC2)s1 (stereo not drawn),-0.522%
15,CC1CC(C)CN(CCCNC(=O)CN2C(=O)CSc3ncccc32)C1 (stereo not drawn),1.03%
16,C/C(=C\c1ccccc1)CN1CCN(C=O)CC1,0.472%
17,Cc1ccc(-c2nnc(C3CCN(S(=O)(=O)c4cccc5nsnc45)CC3)o2)cc1,8.53%
18,N#CC(=C1CCCCC1)c1nc(-c2ccc(-c3ccccc3)cc2)cs1,-0.216%
19,Cc1nc2nc(CNC(=O)OC(C)(C)C)nn2c(C)c1CCC(=O)N1CCOCC1,5.91%
20,O=[N+]([O-])c1ccc(S(=O)(=O)n2cnc3ccccc32)cc1,2.81%
21,CCOC(=O)c1sc(NC(=O)c2ccccc2OCC)c(C(=O)OCC)c1C,5.22%
22,Cc1nn2c3c(cnc2c1-c1ccccc1)C(=O)CC(C)(C)C3,-2.75%
23,CCCNC(=O)C1CCN(S(=O)(=O)c2c(C)cc(C)cc2C)CC1,-11%
24,COc1ccc(-c2noc(CN3CCCC(C(=O)NC4CCCCC4)C3)n2)cc1OC (stereo not drawn),-0.495%
25,Cn1ncc2c(=O)n(Cc3ccc(C#N)cc3)cnc21,-2.41%

row,Structure (SMILES),% Inhibition @ 10 uM
1,CCc1cc2c(=O)n(CC(=O)O)cnc2s1,2.24%
2,CCc1nn2cc(-c3cccc(Br)c3)nc2s1,-2.71%
3,O=c1cc(O)nc2sc(C3CCCCC3)nn12,2.65%
4,COc1ccccc1NC(=O)C(C)Oc1ccccc1 (stereo not drawn),0.843%
5,CCOC(=O)c1sc2ccccc2c1Cl,-4.35%
6,COc1ccc2c(c1)C(C)=CC(C)(C)N2S(=O)(=O)c1ccc(C)cc1,-2.51%
7,COc1cccc(C2C(C(=O)c3cc4ccccc4o3)=C(O)C(=O)N2CCN2CCOCC2)c1 (stereo not drawn),-16.4%
8,COCc1nnc(NC(=O)/C=C/c2ccc3c(c2)OCO3)s1,1.91%
9,CCOC(=O)c1[nH]c2c(c1-c1ccccc1)C(=O)CC(c1ccccc1)C2 (stereo not drawn),-3.21%
10,CC(=O)N1CCC(NC23CC4CC(CC(C4)C2)C3)CC1,-0.0648%
11,N#Cc1ccccc1C(=O)Nc1ccccc1N,5.92%
12,Cc1c(Cl)cccc1NC(=O)Cc1ccc(-c2ccccc2)cc1,0.467%
13,NCc1cccc(C(=O)N[C@@H](Cc2ccc3ccccc3c2)C(=O)N[C@@H](CCc2ccccc2)C(=O)COc2ccccc2)c1,-2.35%
14,O=C(CN1C(=O)c2ccccc2S1(=O)=O)NCCc1ccccc1,6.97%
15,CCOc1ccc(C(=O)Nc2cccc(C)n2)cc1,-5.34%
16,CN1CCc2c1nc1ccc(Br)cc1c2N,-3.16%
17,OC1(c2ccccc2)c2ccccc2N=C2CCCCCN21 (stereo not drawn),0.0285%
18,CCc1ccc(OCC(=O)N2CCN(C(=O)COc3ccc(CC)cc3)CC2)cc1,-2.15%
19,C=CCn1c(=O)/c(=C2/Sc3ccc(OC)cc3N2CC)s/c1=C1/C(=O)NN=C1C,0.687%
20,COc1cc(/C=c2\sc3ncnn3c2=O)ccc1OCCC(C)C,-3.06%
21,O=C1CC(c2ccccc2F)c2c(O)nc3ncnn3c2N1 (stereo not drawn),-0.0678%
22,Cn1c(=O)c2c(nc(SCC(=O)N3CCOCC3)n2Cc2ccccc2Cl)n(C)c1=O,-6.38%
23,COc1ccc2c(c1)c1c(c3ccccc3n1OS(=O)(=O)c1ccc(C)cc1)n2C,9.19%
24,Cc1ccc(S(=O)(=O)N(CC(=O)Nc2ccccc2C)c2ccc(F)cc2)cc1,-6.89%
25,Cc1nnc(N2CCCC(C(=O)N(C)Cc3ccccc3)C2)c2nn(-c3ccc(Cl)cc3)c(C)c12 (stereo not drawn),6%

row,Structure (SMILES),% Inhibition @ 10 uM
1,Cc1cc(C)c2c(O)nc(SCC(=O)c3ccc(O)c(O)c3)nc2n1,-8.35%
2,COc1ccc(-c2cn3c(n2)sc2cc(C(=O)NCCCN4CCc5ccccc5C4)ccc23)cc1,9.08%
3,Cc1cc(C)c(C#N)c(SCC(=O)N(Cc2ccccc2)Cc2ccccc2)n1,0.686%
4,COc1ccc(CN2CCN(Cc3ccc(C)cc3)CC2)cc1,3.7%
5,CCOc1ccccc1NC(=O)C1=C(C)NC(=O)NC1c1ccc(OC)c(OC)c1 (stereo not drawn),-3.97%
6,CCc1nn(C(C)C(=O)NCCc2c[nH]c3ccccc23)c(=O)c2cc3occc3n12 (stereo not drawn),-0.281%
7,NCCCCCCNC(=O)c1c(O)nc2c(c1O)CCCC2,-9.62%
8,O=C(Nc1ccccc1)Nc1ccccc1C#Cc1ccccc1,-5.94%
9,COc1ccc(CNC23CC4CC(CC(C4)C2)C3)c2ccccc12,-2.91%
10,Cc1cccc(-c2noc(CN(C(=O)COc3ccccc3C)C(C)C)n2)c1,1.94%
11,Cn1c(=O)c2c(-c3ccccc3Cl)n(-c3ccccc3)cc2n(C)c1=O,3.62%
12,CCSc1nnc(NC(=O)CSc2nnc(Cc3cccn3C)n2Cc2ccccc2)s1,-1.3%
13,Cc1ccc2c(c1)cc1c(=O)n(CC(=O)N3CCOCC3)nc(C)n12,-3.47%
14,CC1=C(c2ccc(C)c(C)c2)S(=O)(=O)N=C1N1CCC(C(=O)NCCN2CCCCC2C)CC1 (stereo not drawn),2.65%
15,Nc1ncnc2oc(-c3ccccc3)c(-c3ccccc3)c12,4.44%
16,Cc1cc(C)c2c(O)n(-c3ccccc3)nc2n1,-1.86%
17,COc1cc(OC)cc(C(=O)NCc2ccc3c(c2)OCO3)c1,-3.33%
18,O=C(NCCc1ccc(Cl)cc1)C1C2C=CC3(CN(Cc4cccs4)C(=O)C13)O2 (stereo not drawn),12%
19,CN(Cc1ccccc1)C(=O)CCSc1ccc(Cl)cc1,5.42%
20,CC1CCCN(c2ncnc3c2cnn3C)C1 (stereo not drawn),4.3%
21,COC(=O)c1cccnc1-n1c(=O)c2cccnc2n(Cc2cccc(C(F)(F)F)c2)c1=O,3.49%
22,CCN(CC)C(=O)Cn1cc(SCc2cccc(F)c2)c2ccccc21,4.03%
23,N#C/N=C(/N)c1sc2nc3c(cc2c1N)CCCCC3,-2.54%
24,COc1ccc(C2C(C#N)=C(N)Oc3[nH]nc(C(C)(C)C)c32)cc1OC (stereo not drawn),-1.06%
25,COc1ccc(S(=O)(=O)Nc2ccc(NS(=O)(=O)c3ccc(C)cc3)cc2)cc1,-4.15%

row,Structure (SMILES),% Inhibition @ 10 uM
1,CC(C)CN1C(=O)c2ccccc2C(C(=O)N2CCc3ccccc3C2)C1c1cccs1 (stereo not drawn),-5.3%
2,CCc1ccc(OCC(=O)Nc2ccc(S(=O)(=O)N3CCCCCC3)cc2)cc1,-7.06%
3,CCOc1cccc2cc(S(=O)(=O)c3ccccc3)c(=O)oc12,3.75%
4,CCc1cc2c(cc3c(=O)n(CC(=O)N(C)Cc4ccccc4)ncn32)s1,0.0198%
5,Cc1ccc(C(=O)NCC(O)c2ccccc2)cc1 (stereo not drawn),-0.636%
6,CCOC(=O)C1(C#N)C(C)(CC)C1(C#N)C(=O)OCC (stereo not drawn),-7.42%
7,COc1ccc(C/N=C/c2c(C(=O)O)[nH]c3ccccc23)cc1,-5.8%
8,CCCn1c(=O)c2sccc2n2c(CCCC(=O)NC(C)c3ccccc3)nnc12 (stereo not drawn),-6.87%
9,O=C(Cc1cccc2ccccc12)NCc1ccco1,-1.46%
10,Cc1ccc(-c2c(C#N)c(N)nc(C)c2-c2ccccc2)o1,-1.33%
11,CC(C)(C)c1ccc(C(=O)Nc2c3c(nn2-c2cccc(Cl)c2)CS(=O)(=O)C3)cc1,4.65%
12,O=C(NCCC1=CCCCC1)c1cc2c(Cl)ccc3c2n1CCO3,3.47%
13,Cc1[nH]c2ccccc2c1CCNCc1cccc(F)c1,-1.38%
14,c1ccn(-c2ccc(-c3noc(-c4ccncc4)n3)cc2)c1,-2.63%
15,NC(=O)c1c(NC(=O)CSc2ccc(Cl)cc2)sc2c1CCC2,-11.3%
16,OCC1CCCN1C1C2CC3CC(C2)CC1C3 (stereo not drawn),-0.603%
17,CCC(C)NC(=O)c1nn(C)c2c1CS(=O)(=O)c1ccccc1-2 (stereo not drawn),-4.42%
18,CC(=O)C1=C(C)NC(C)=C(C(C)=O)C1c1cn(-c2ccccc2)nc1-c1cccs1,-5.63%
19,Cc1cc(C)cc(NC(=O)/C=C/C(=O)O)c1,-4.31%
20,O=S(=O)(c1ccc2c(c1)OCCO2)N1CCCC1,-1.85%
21,CCOc1cc(/C=c2\sc3n(c2=O)C(c2ccccc2OC)C(C(C)=O)=C(C)N=3)ccc1O (stereo not drawn),-2.39%
22,O=C(c1cccs1)c1conc1C(=O)c1ccc(Br)cc1,93.8%
23,O=C(O)/C=C/c1ccc(-c2ccc(Br)cc2)o1,-0.415%
24,CS(=O)(=O)N(CC(=O)Nc1ccc(S(=O)(=O)N2CCCCC2)cc1)c1cccc(F)c1,-1.89%
